Results as given in PubChem BioAssay AID504332 (National Center for Advancing Translational Sciences (NCATS), 2011).
“And” between values parts separate entries of the source, which are not always exact repeats. Equal values may be shown once. Hit rate of the full screen: of about 350,000 compounds, about 31,000 (8.9%) were called active. The inconclusive results got no clear call from the source; some entries with a clear call stand among them for comparison. Calls come from the whole dose curve; as a rule, active = well fitted inhibition curve with a large enough effect; inconclusive = small, poorly fitted or top-dose-only effect; inactive = no such curve, though single readings can be large or run the other way. Where the call is inconclusive, the potency comes from a doubtful curve fit.

Target: Histone-lysine N-methyltransferase EHMT2 (Homo sapiens) (UniProt Q96KQ7)
Chain of UniProt Q96KQ7 (Q96KQ7 whole entry, looked up): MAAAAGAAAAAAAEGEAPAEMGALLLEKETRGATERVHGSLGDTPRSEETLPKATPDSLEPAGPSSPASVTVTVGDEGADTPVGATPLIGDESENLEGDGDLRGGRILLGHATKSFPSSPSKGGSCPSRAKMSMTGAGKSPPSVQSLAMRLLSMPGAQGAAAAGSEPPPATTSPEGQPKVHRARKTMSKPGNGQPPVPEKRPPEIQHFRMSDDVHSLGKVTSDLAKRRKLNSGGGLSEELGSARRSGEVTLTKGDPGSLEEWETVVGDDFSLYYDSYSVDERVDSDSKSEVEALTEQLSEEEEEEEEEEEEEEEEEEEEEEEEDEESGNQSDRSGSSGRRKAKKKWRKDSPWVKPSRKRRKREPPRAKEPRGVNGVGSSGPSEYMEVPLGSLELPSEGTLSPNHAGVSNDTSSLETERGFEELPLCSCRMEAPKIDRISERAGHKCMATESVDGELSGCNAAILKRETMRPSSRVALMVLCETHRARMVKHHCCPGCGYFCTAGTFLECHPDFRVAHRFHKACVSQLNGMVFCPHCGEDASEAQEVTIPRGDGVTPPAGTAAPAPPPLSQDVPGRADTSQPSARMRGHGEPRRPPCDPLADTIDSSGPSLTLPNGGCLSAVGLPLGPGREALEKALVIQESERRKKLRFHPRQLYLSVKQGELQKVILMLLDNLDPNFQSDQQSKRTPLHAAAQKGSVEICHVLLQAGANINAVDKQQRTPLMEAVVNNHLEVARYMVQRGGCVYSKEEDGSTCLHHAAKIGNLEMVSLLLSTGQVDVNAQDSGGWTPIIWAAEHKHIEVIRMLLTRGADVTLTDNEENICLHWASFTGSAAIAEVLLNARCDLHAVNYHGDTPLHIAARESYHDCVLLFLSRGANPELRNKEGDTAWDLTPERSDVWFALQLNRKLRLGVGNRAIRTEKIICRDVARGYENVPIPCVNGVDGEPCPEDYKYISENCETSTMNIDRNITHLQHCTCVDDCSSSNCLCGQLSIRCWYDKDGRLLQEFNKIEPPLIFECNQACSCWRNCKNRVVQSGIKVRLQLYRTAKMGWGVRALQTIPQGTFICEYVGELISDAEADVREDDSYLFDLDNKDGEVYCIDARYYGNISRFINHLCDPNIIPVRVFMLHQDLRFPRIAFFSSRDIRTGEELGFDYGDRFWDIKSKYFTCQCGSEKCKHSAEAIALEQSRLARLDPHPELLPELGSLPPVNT
Assay: qHTS Assay for Inhibitors of Histone Lysine Methyltransferase G9a; note: nearly all actives have a fitted effect of over 75% in size
Details: G9a H3K9 monomethylation, AlphaScreen, 2 h; activity, negative = inhibition: at 59 µM (top of the series) unless noted
In short: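 Methyltransferase reactions run at room temperature for 2 h (20 nM enzyme, 500 nM biotin-H3K9 peptide, 20 uM SAM) after a 15 min compound preincubation; product detected by AlphaScreen beads and anti-H3K9me1 antibody.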
% is set by controls: 0 for no effect and ±100 for the full control effect; potency is the fitted concentration of half-maximal effect; tags give direction and shape of the fitted curve.

Row | Structure (SMILES) | Potency | activity, negative = inhibition
1 | Cc1csc(=O)n1CC(=O)OCC(=O)Nc1cc([N+](=O)[O-])ccc1Cl | inconclusive: 15.8 µM [inhibitor, full curve, poor fit] | 
2 | CN(C)c1nc2c(Br)c(Br)c(Br)c(Br)c2[nH]1 | inconclusive: 79.4 µM [inhibitor, single point] and inconclusive: 29.9 µM [inhibitor, single point] | 
3 | S=C(Nc1ccc2[nH]ccc2c1)NC1CCCCC1 | inconclusive: 50.1 µM [inhibitor, partial curve] | 
4 | CCCNC(=O)CCc1c(C)nc2c(c(C)nn2-c2ccc(C)cc2)c1C | inconclusive: 0.158 µM [inhibitor, full curve] | 
5 | COC(=O)c1ccc(C(=O)OC)c(NC(=O)c2ccc(-c3ccccc3)s2)c1 | inactive | 
6 | Nc1nn(S(=O)(=O)c2ccccc2)cc1-c1ccc([N+](=O)[O-])cc1 | inconclusive: 39.8 µM [inhibitor, single point] | 
7 | COc1cccc(C(=O)/C=C/Nc2ccc(S(=O)(=O)Nc3cnc4ccccc4n3)cc2)c1 | inconclusive: 35.5 µM [inhibitor, single point] | 
8 | Nc1c(Nc2ccccc2)c2ccccc2oc1=O | active: 50.1 µM | 
9 | CCN1C(=O)C2(C(C#N)=C(N)Oc3c2c(C)nn3-c2ccccc2)c2ccccc21 (configuration not stated) | inconclusive: 50.1 µM [inhibitor, partial curve] | 
10 | CCOC(=O)C1=C(C)c2ccccc2OC1(CC)C(=O)OCC (configuration not stated) | inactive | 
11 | CCOC(=O)c1ccc(N2CCCCC2)c(NS(=O)(=O)c2cccc(C(F)(F)F)c2)c1 | inconclusive: 79.4 µM [inhibitor, single point] | 
12 | COc1cccc(-c2nc(S(=O)(=O)c3ccc(C)cc3)c(N3CCCCC3)o2)c1 | inconclusive: 5.01 µM [inhibitor, partial curve, poor fit] | 
13 | C/C(=N/NS(=O)(=O)c1ccc(F)cc1)c1ccncc1 | active: 22.4 µM | 
14 | COc1ccc(/C=N/Nc2ccc([N+](=O)[O-])cc2)cc1O | inconclusive: 89.1 µM [inhibitor, single point] | 
15 | Cc1ccc(/C=C/C(=O)OCC(=O)NCc2ccccc2)o1 | active: 44.7 µM | 
16 | O=C(CSc1ccc2nnc(-c3ccc(Cl)cc3)n2n1)N1CCc2ccccc21 | active: 7.94 µM | 
17 | C#CCOCCOCCOCCNc1nc(N2CCN(C(=O)[C@H](C)n3cc(CCCN=C(N)N)nn3)CC2)nc(N2CCN(C(=O)[C@H](CCCCN)n3cc(CCCC)nn3)CC2)n1 | active: 4.47 µM | 
18 | CCOC(=O)CNC(=O)CSc1nc2ncc(Br)cc2[nH]1 | inconclusive: 79.4 µM [inhibitor, single point] | 
19 | CCCCN(C(=O)c1nn(C)c(=O)c2ccccc12)c1c(N)n(CC(C)C)c(=O)[nH]c1=O | inconclusive: 25.1 µM [inhibitor, single point] | 
20 | O=C(O)CN1C(=O)/C(=C/c2ccc(N3CCCCC3)o2)SC1=S | active: 25.1 µM | 
21 | COc1ccccc1NC(=O)c1c(C)cc(C)nc1SCC(=O)c1ccc(Cl)cc1 | inconclusive: 0.891 µM [inhibitor, partial curve, poor fit] | 

Row | Structure (SMILES) | Potency | activity, negative = inhibition
22 | OC(c1ccc(Cl)cc1)c1nccc2ccccc12 (configuration not stated) | active: 39.8 µM | 
23 | Cc1ccc2c(c1)C(c1ccccc1)N(C(=O)Cc1ccc(F)cc1)CC(=O)N2 (configuration not stated) | inactive | 
24 | CCOC(=O)c1cnc(SCC(=O)N2CCC(C(N)=O)CC2)nc1N | active: 50.1 µM | 
25 | Cc1nnsc1C(=O)Nc1ccc(S(=O)(=O)N2CCCCC2C)cc1 (configuration not stated) | inconclusive: 89.1 µM [inhibitor, single point] | 
26 | CC(C)(C)c1ccc(OCCC(=O)NCCc2ccc(S(N)(=O)=O)cc2)cc1 | inconclusive: 0.355 µM [inhibitor, full curve, poor fit] | 
27 | O=C(O)c1ccccc1NSc1ccccc1[N+](=O)[O-] | active: 28.2 µM | 
28 | O=C(c1csnn1)N1CCC2(CCN(Cc3cc(C(F)(F)F)cc(C(F)(F)F)c3)CC2)CC1 |  | inactive: 0.798% [at 12.7 µM]
29 | CCN(CC)C(=O)CSc1nc(N)c(C(=O)Nc2ccc(OC)cc2)s1 | inactive | 
30 | O=C(CCCCCCCCCCCCC1CCCC1)Nc1ccc(S(=O)(=O)c2ccc(NC(=O)CCCCCCCCCCCCC3CCCC3)cc2)cc1 |  | inactive: -8.86% [at 2.33 µM]
31 | Cc1ccc(S(=O)(=O)Nc2nc3n(n2)C(c2ccc(F)cc2)C=C(c2ccccc2)N3)cc1 (configuration not stated) | inconclusive: 20 µM [inhibitor, partial curve, poor fit] | 
32 | O=C(Nc1nc(-c2cccs2)cs1)c1cc2ccccc2oc1=O |  | inactive: -5.98% [at 12.7 µM]
33 | CCN1CCN(Cc2ccc(NC(=O)c3cc(NC(=O)c4cnnc5ccccc45)cc(OC)c3)cc2C(F)(F)F)CC1 |  | inconclusive: -70% [inhibitor]
34 | CCCCn1c(N)c(N(CC(C)C)C(=O)C2CC(=O)N(Cc3ccccc3)C2)c(=O)[nH]c1=O (configuration not stated) | active: 14.1 µM | 
35 | CCOC(=O)c1c(NC(=O)CSc2nnc(-c3ccc(C)cc3)o2)sc(C(C)=O)c1C | inactive | 
36 | Cc1cc(Cl)ccc1OCCCC(=O)NCCN1C(=O)S/C(=C\c2cccnc2)C1=O | inconclusive: 39.8 µM [inhibitor, single point] | 
37 | COc1ccc(C2=NC(C)(C)N(CC(=O)Nc3cccc(C)c3)C2=O)cc1 | inactive | 
38 | CCOC(=O)c1cc(C)n(-c2ccc(OC)c(OC)c2)c1C | inconclusive: 100 µM [inhibitor, single point] | 
39 | COc1ccc([C@H]2[C@H](C(=O)OC(C)(C)C)N3N=Cc4ccccc4C3C23C(=O)c2ccccc2C3=O)cc1OC (some centres not stated) | inconclusive: 22.4 µM [inhibitor, single point] | 
40 | CCOC(=O)C1=C(C)N=c2s/c(=C/c3cccc(OCC(=O)O)c3)c(=O)n2C1c1ccc(F)cc1 (configuration not stated) | inconclusive: 89.1 µM [inhibitor, single point] | 
41 | COc1ccccc1CNS(=O)(=O)c1cnc(N)nc1 | inactive | 
42 | CCOc1cc(/C=C/C(=O)Nc2ccc(C(=O)NCCN(CC)CC)cc2)ccc1OCC(C)C | inconclusive: 79.4 µM [inhibitor, single point] | 
